# Data from PubChem BioAssay (Tox21).
# Values joined by “and” are separate entries in the source; they are usually repeats but may differ in a detail not shown here. Equal entries are not always repeated. Inconclusive results, whose numbers are uncertain, are shown with a selection of clear calls. For part of these data: A potency beside an inconclusive call is a rough fit, not a confirmed value. Active and inactive are the calls of the source. Unless noted, the call rests on the fitted dose curve; in most records, active means well fitted curve in the direction sought with a large enough effect in the repeat runs; inconclusive means weak or mixed curves; inactive means no such curve, though single readings can be large; an effect the other way counts as inactive or inconclusive.
# What was measured:
# [1] = target: Aryl hydrocarbon receptor (Homo sapiens) (UniProt P35869); experiment: qHTS assay to identify small molecule that activate the aryl hydrocarbon receptor (AhR) signaling pathway (AID 743085); further: potency means the concentration at half of the fitted maximal effect; nearly all actives have a fitted effect of over 15% in size
# Outline: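 HepG2 cells (HG2L7.5c1) stably carrying a firefly luciferase reporter driven by 20 dioxin responsive elements were exposed to compound for 24 h at 37C after a 5 h settling period; luminescence rise (ONE-Glo) indicated activation.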
# [2] = qHTS assay to identify small molecule that activate the aryl hydrocarbon receptor (AhR) signaling pathway - cell viability counter screen (AID 743086); further: potency means the concentration at half of the fitted maximal effect; nearly all actives have a fitted effect of over 45% in size
# Outline: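 HepG2-AhR-luc (HG2L7.5c1) cells, 4000/well, treated 24 h at 37 C with compound; viability measured as CellTiter-Fluor fluorescence after 30 min in the same wells as the luciferase read.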
# [3] = target: Peroxisome proliferator-activated receptor gamma (Homo sapiens) (UniProt P37231); experiment: qHTS assay to identify small molecule agonists of the peroxisome proliferator-activated receptor gamma (PPARg) signaling pathway (AID 743094; active means well fitted activation curve with a large enough effect in the signal ratio in the repeat runs, not every such curve was filed as active; inconclusive means weak or mixed curves, or effect the other way; inactive means no such curve, though single readings can be large or run the other way; the % refers to the signal ratio; further: potency means the concentration at half of the fitted maximal effect; on activation: on the % scale 0 is the no-effect control and ±100 the full control effect); settings: HEK293H PPARg-UAS-bla, beta-lactamase FRET ratio, 17 h; activation: at 57 µM (top of the series) unless noted
# Outline: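 Stably transfected HEK293H cells (GeneBLAzer PPARg UAS-bla) were incubated with test substances for 17 h at 37C after a 5 h pre-incubation; beta-lactamase activity was then detected by FRET substrate fluorescence.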
# [4] = target: Peroxisome proliferator-activated receptor gamma (Homo sapiens) (UniProt P37231); experiment: qHTS assay to identify small molecule antagonists of the peroxisome proliferator-activated receptor gamma (PPARg) signaling pathway (AID 743191; calls by dose curve; further: nearly all actives have a fitted effect of over 30% in size; further: potency means the concentration at half of the fitted maximal effect; on ratio activity, negative = inhibition: on the % scale 0 is the no-effect control and ±100 the full control effect); settings: HEK293H PPARg-UAS-bla, beta-lactamase ratio, antagonist, 17 h; ratio activity, negative = inhibition: at 62.6 µM (top of the series) unless noted
# Outline: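 GeneBLAzer PPARg UAS-bla HEK293H cells, 5 h post-plating, exposed to compounds 17 h at 37C. LiveBLAzer B/G FRET substrate added for 1 h at room temperature; beta-lactamase reporter read by fluorescence intensity.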
# [5] = qHTS assay for small molecule agonists of the antioxidant response element (ARE) signaling pathway (AID 743202; active means well fitted activation curve with a large enough effect in the signal ratio in the repeat runs, not every such curve was filed as active; inconclusive means weak or mixed curves, or effect the other way; inactive means no such curve, though single readings can be large or run the other way; the % refers to the signal ratio; further: potency means the concentration at half of the fitted maximal effect); settings: HepG2 ARE-bla reporter, beta-lactamase FRET, 16 h; activation: at 73.3 µM (top of the series) unless noted
# Outline: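 ARE-bla HepG2 cells (beta-lactamase reporter under the antioxidant response element), plated 5 hours, then exposed to compounds 16 hours at 37 C. LiveBLAzer B/G FRET substrate added for 2 hours at room temperature; fluorescence intensity read.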
# [6] = target: Peroxisome proliferator-activated receptor delta (Homo sapiens) (UniProt Q03181); experiment: qHTS assay to identify small molecule antagonists of the peroxisome proliferator-activated receptor delta (PPARd) signaling pathway (AID 743215; active means well fitted inhibition curve with a large enough effect in the signal ratio in the repeat runs, not every such curve was filed as active; inconclusive means weak or mixed curves, or effect the other way; inactive means no such curve, though single readings can be large or run the other way; the % refers to the signal ratio;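 further: cells stimulated with agonist L165041 at 300 nM final during compound exposure; on the % scale 0 is the no-effect control and ±100 the full control effect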); settings: HEK293H PPARd-UAS-bla, beta-lactamase FRET ratio, antagonist, 17 h
# Outline: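 Antagonist-mode beta-lactamase reporter screen: HEK293H cells with UAS-bla under PPARd control, stimulated by 300 nM L165041 (final) alongside test compound for 17 h at 37 C, then FRET fluorescence after 2 h substrate incubation.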
# [7] = qHTS assay to identify small molecule agonists of the farnesoid-X-receptor (FXR) signaling pathway - cell viability counter screen (AID 743218); settings: FXR-bla HEK293T viability, CellTiter-Glo luminescence, 16 h; viability change, negative = cytotoxic: at 62.6 µM (top of the series) unless noted; further: potency means the concentration at half of the fitted maximal effect; nearly all actives have a fitted effect of over 45% in size
# Outline: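 In GeneBLAzer FXR-UAS-bla HEK 293T cells, compounds act for 16 h at 37 C. Cell viability is then scored in the reporter wells by CellTiter-Glo, 30 min at RT, luminescence.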
# [8] = qHTS assay to identify small molecule antagonists of the farnesoid-X-receptor (FXR) signaling pathway - cell viability counter screen (AID 743221; active means well fitted cell-killing curve with a large enough effect in the repeat runs, not every such curve was filed as active; inconclusive means weak or mixed curves, or effect the other way; inactive means no such curve, though single readings can be large or run the other way; further: potency means the concentration at half of the fitted maximal effect; nearly all actives have a fitted effect of over 50% in size); settings: FXR-bla HEK293T viability, CellTiter-Glo luminescence, 16 h; activity change, negative = cytotoxicity: at 62.6 µM (top of the series) unless noted
# Outline: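 FXR-UAS-bla HEK 293T cells were treated with test compounds plus chenodeoxycholic acid (50 uM final) for 16 h at 37 C. Cell viability in the same wells was then read as CellTiter-Glo luminescence after 30 min at room temperature.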
# [9] = qHTS assay for small molecule activators of the heat shock response signaling pathway - cell viability counter screen (AID 743209); settings: HSE-bla HeLa viability, CellTiter-Glo luminescence, 5 h; activity change, negative = cytotoxicity: at 62.6 µM (top of the series) unless noted; further: potency means the concentration at half of the fitted maximal effect; nearly all actives have a fitted effect of over 50% in size
# Outline: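 Quantitative HTS format, Tox21 10K library. HeLa cells carrying an HSE-driven beta-lactamase reporter were treated 5 h at 37 C, then assessed for viability by CellTiter-Glo luminescence.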
# [10] = qHTS assay for small molecule activators of the heat shock response signaling pathway (AID 743210; active means well fitted activation curve with a large enough effect in the signal ratio in the repeat runs, with a control signal flat, not every such curve was filed as active; inconclusive means weak or mixed curves; the % refers to the signal ratio; further: potency means the concentration at half of the fitted maximal effect); settings: HeLa HSE-bla reporter, beta-lactamase ratio, 5 h; activation: at 62.6 µM (top of the series) unless noted
# Outline: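 HSE-bla HeLa cells (beta-lactamase reporter under heat shock response elements), plated overnight, then exposed to compounds 5 h at 37 C; LiveBLAzer B/G FRET substrate added, 2.5 h at room temperature, fluorescence intensity read.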
# [11] = target: Vitamin D3 receptor (Homo sapiens) (UniProt P11473); experiment: qHTS assay to identify small molecule agonists of the vitamin D receptor (VDR) signaling pathway (AID 743222; calls by dose curve; further: potency means the concentration at half of the fitted maximal effect); settings: HEK293T VDR-UAS-bla, beta-lactamase FRET ratio, 16 h; activation: at 63.5 µM (top of the series) unless noted
# Outline: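 Agonist activity measured in VDR-bla reporter cells. Exposure 16 h, 37C, 5% CO2; detection by B/G FRET substrate, 2 h RT.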
# [12] = target: Vitamin D3 receptor (Homo sapiens) (UniProt P11473); experiment: qHTS assay to identify small molecule antagonists of the vitamin D receptor (VDR) signaling pathway (AID 743223; active means well fitted inhibition curve with a large enough effect in the signal ratio in the repeat runs, not every such curve was filed as active; inconclusive means weak or mixed curves, or effect the other way; inactive means no such curve, though single readings can be large or run the other way; the % refers to the signal ratio; further: potency means the concentration at half of the fitted maximal effect); settings: VDR-UAS-bla HEK293T, beta-lactamase FRET ratio, 16 h; activity change, negative = inhibition: at 61 µM (top of the series) unless noted
# Outline: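 VDR-bla cells were plated, incubated 4 h at 37C, then given compound and 1alpha,25-dihydroxyvitamin D3 (3 nM final). After 16 h at 37C, LiveBLAzer B/G FRET substrate was added for 2 h at room temperature and fluorescence read.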
# [13] = qHTS assay to identify small molecule agonists of the vitamin D receptor (VDR) signaling pathway - cell viability counter screen (AID 743224); settings: VDR-bla HEK293T viability, CellTiter-Glo luminescence, 16 h; activity change, negative = cytotoxicity: at 62.6 µM (top of the series); further: potency means the concentration at half of the fitted maximal effect; nearly all actives have a fitted effect of over 50% in size
# Outline: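 VDR-bla cell line, quantitative HTS format; 16 h compound incubation (37C, 5% CO2); ATP-based CellTiter-Glo luminescence measured in the reporter assay wells.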
# [14] = qHTS assay for small molecule agonists of the antioxidant response element (ARE) signaling pathway - cell viability counter screen (AID 743203; calls by dose curve; further: potency means the concentration at half of the fitted maximal effect; nearly all actives have a fitted effect of over 55% in size); settings: ARE-bla HepG2 viability, CellTiter-Glo luminescence, 16 h; viability change, negative = cytotoxic: at 73.3 µM (top of the series)
# Outline: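 Cells (ARE-bla HepG2, 2,000/well) receive DMSO-dissolved compounds after a 5 hrs rest. Plates incubate 16 hrs at 37C/5% CO2. CellTiter-Glo luminescence is then recorded after 30 min at room temperature.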
# [15] = qHTS assay to identify small molecule agonists of the peroxisome proliferator-activated receptor delta (PPARd) signaling pathway - cell viability counter screen (AID 743211); settings: PPARd-bla HEK293H viability, CellTiter-Glo luminescence, 17 h; activity change, negative = cytotoxicity: at 62.6 µM (top of the series) unless noted; further: potency means the concentration at half of the fitted maximal effect; nearly all actives have a fitted effect of over 55% in size
# Outline: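 PPARd-bla HEK293H cells (UAS-beta-lactamase reporter) were treated with compounds for 17 h at 37 C. Viability was then read in the same wells by CellTiter-Glo luminescence after 30 min at room temperature.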
# [16] = target: Bile acid receptor (Homo sapiens) (UniProt Q96RI1); experiment: qHTS assay to identify small molecule antagonists of the farnesoid-X-receptor (FXR) signaling pathway (AID 743217; active means well fitted inhibition curve with a large enough effect in the signal ratio in the repeat runs, not every such curve was filed as active; inconclusive means weak or mixed curves, or effect the other way; inactive means no such curve, though single readings can be large or run the other way; the % refers to the signal ratio; further: potency means the concentration at half of the fitted maximal effect); settings: HEK293T FXR-UAS-bla, beta-lactamase ratio, CDCA-stimulated, 16 h; activity change, negative = inhibition: at 62.6 µM (top of the series) unless noted
# Outline: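 Beta-lactamase reporter under UAS control in HEK 293T cells; compound exposure 16 h at 37 °C in the presence of chenodeoxycholic acid (50 uM final); signal from B/G FRET substrate after 2 h at room temperature.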
# [17] = target: Bile acid receptor (Homo sapiens) (UniProt Q96RI1); experiment: qHTS assay to identify small molecule agonists of the farnesoid-X-receptor (FXR) signaling pathway (AID 743220; active means well fitted activation curve with a large enough effect in the signal ratio in the repeat runs, not every such curve was filed as active; inconclusive means weak or mixed curves, or effect the other way; the % refers to the signal ratio; further: on the % scale 0 is the no-effect control and ±100 the full control effect); settings: HEK293T FXR-UAS-bla, beta-lactamase FRET ratio, 16 h
# Outline: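 Beta-lactamase reporter under UAS control in GeneBLAzer FXR HEK 293T cells (5000/well) measured with LiveBLAzer FRET substrate after 2 h at room temperature. Compound exposure lasted 16 h at 37C.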
# [18] = ratio activity, negative = inhibition: at 62 µM (top of the series) unless noted
# Tags describe the fitted curve by direction and shape or compound fluorescence and quenching.
# UniProt P37231, sequence (P37231 whole entry, looked up): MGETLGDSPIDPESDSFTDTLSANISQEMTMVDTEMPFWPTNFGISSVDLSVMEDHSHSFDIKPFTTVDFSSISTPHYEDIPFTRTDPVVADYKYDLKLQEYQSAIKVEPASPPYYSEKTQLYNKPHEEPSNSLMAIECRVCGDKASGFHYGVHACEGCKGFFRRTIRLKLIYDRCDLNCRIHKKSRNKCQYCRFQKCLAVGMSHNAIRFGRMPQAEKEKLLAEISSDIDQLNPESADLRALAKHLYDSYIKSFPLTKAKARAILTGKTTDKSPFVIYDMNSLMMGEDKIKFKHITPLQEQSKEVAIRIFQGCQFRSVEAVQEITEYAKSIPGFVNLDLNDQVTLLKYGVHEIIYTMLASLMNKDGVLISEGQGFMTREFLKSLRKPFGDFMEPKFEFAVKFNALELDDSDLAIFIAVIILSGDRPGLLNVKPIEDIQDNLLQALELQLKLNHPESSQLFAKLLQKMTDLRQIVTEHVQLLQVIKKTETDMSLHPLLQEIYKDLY
# UniProt P35869, sequence (P35869 whole entry, looked up): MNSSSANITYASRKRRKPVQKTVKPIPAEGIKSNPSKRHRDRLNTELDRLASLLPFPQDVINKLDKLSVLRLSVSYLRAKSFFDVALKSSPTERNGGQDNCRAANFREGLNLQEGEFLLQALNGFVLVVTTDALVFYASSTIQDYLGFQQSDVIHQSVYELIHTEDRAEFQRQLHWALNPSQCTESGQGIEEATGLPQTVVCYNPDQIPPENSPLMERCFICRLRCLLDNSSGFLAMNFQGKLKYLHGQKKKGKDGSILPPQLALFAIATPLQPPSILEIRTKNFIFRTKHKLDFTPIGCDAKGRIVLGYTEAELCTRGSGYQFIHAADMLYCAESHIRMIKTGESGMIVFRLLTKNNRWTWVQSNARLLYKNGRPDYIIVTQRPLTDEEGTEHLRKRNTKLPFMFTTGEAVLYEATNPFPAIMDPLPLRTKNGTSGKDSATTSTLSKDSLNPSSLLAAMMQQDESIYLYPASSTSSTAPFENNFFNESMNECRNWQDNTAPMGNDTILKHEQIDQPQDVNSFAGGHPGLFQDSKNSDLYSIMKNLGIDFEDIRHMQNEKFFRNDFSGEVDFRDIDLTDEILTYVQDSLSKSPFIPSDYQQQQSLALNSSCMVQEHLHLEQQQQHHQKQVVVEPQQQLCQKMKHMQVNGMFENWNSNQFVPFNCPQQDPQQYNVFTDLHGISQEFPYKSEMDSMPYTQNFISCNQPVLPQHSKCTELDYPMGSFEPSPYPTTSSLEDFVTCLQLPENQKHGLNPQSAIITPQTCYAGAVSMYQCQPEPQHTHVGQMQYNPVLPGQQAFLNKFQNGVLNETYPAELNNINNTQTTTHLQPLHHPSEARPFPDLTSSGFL
# UniProt P11473, sequence (P11473 whole entry, looked up): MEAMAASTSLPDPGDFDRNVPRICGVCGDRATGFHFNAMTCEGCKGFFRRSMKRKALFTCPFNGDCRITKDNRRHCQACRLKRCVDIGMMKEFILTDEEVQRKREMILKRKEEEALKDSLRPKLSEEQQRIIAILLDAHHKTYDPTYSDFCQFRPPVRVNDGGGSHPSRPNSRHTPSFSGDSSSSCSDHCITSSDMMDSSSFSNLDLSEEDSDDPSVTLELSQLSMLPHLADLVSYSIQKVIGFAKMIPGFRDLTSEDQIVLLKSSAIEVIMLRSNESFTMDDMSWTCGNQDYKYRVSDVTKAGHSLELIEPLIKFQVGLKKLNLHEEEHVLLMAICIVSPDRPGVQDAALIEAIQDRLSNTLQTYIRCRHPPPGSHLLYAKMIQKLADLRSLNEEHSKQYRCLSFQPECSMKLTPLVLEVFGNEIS
# UniProt Q03181, sequence (Q03181 whole entry, looked up): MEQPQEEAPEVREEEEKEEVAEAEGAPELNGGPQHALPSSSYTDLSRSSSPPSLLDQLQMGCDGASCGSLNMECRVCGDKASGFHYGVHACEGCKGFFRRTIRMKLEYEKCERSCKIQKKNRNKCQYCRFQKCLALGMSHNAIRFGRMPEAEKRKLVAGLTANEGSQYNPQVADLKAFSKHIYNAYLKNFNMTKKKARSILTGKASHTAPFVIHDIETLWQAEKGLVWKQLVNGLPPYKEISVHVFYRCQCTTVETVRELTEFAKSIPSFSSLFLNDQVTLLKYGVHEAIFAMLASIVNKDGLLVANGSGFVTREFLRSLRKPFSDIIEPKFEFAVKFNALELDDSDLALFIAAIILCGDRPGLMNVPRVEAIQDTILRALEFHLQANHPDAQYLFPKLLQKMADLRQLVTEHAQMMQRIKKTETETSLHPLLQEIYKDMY
# UniProt Q96RI1, sequence (Q96RI1 whole entry, looked up): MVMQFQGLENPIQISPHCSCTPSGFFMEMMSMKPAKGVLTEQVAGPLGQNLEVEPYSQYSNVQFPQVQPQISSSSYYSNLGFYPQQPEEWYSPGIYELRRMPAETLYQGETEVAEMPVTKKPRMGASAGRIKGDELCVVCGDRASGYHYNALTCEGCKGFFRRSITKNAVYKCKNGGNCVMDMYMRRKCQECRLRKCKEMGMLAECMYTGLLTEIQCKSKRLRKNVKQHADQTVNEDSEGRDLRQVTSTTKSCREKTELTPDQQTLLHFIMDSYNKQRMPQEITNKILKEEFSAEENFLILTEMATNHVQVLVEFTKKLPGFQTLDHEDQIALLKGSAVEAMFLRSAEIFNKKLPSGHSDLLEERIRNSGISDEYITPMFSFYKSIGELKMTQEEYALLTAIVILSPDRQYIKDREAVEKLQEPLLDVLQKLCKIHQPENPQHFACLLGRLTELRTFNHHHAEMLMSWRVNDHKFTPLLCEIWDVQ
smiles,measurement,setting,value
CCc1cc(Cl)c(OC)c(C(=O)NC[C@@H]2CCCN2CC)c1O,Potency,[1],"inconclusive: 29.8 µM [activator, single point] and inconclusive: 10.6 µM [activator, partial curve]"
same,Potency,[2],"inconclusive: 26.6 µM [falling, single point]"
same,activation,[3],inconclusive: -14.4% [at 26.2 µM]
same,"ratio activity, negative = inhibition",[4],inconclusive: -15.7%
same,Potency,[5],inactive
same,Potency,[6]; [18],inactive
same,Potency,[7],"inconclusive: 1.5 µM [cytotoxic, partial curve, poor fit]"
same,Potency,[8],"inconclusive: 18.8 µM [falling, partial curve, poor fit]"
CCOc1ccc2c(c1)C(C)=CC(C)(C)N2,Potency,[1],"inconclusive: 27.2 µM [activator, partial curve] and inconclusive: 12.2 µM [activator, partial curve, poor fit]"
same,Potency,[3],"active: 21.3 µM and inconclusive: 61.4 µM [activator, single point] and inconclusive: 54.9 µM [activator, single point]"
same,Potency,[4],"inactive and inconclusive: 61.6 µM [activator, partial curve, poor fit]"
same,Potency,[5],inconclusive: 68.2 µM and active: 61.1 µM
same,Potency,[9],"inconclusive: 10.9 µM [cytotoxic, full curve]"
same,Potency,[10],inconclusive: 57.9 µM and inconclusive: 43.6 µM [activator]
same,"ratio activity, negative = inhibition",[6]; [18],inconclusive: 13.1% and inconclusive: 17.6%
same,Potency,[11],"inconclusive: 61.6 µM [fluorescent, single point]"
same,activation,[11],inconclusive: -2.75%
same,Potency,[12],"inconclusive: 61.4 µM and inconclusive: 61.6 µM [fluorescent, partial curve, poor fit]"
same,Potency,[13],"inconclusive: 54.9 µM [cytotoxic, single point]"
CC(C)(C)C(=O)C1C(=O)c2ccccc2C1=O,Potency,[1],"inconclusive: 53.9 µM [activator] and inconclusive: 27.3 µM [activator, partial curve]"
same,Potency,[3],"inconclusive: 54.4 µM [rising, single point]"
same,activation,[3],inconclusive: -19.9%
same,Potency,[14],"inconclusive: 43.3 µM [cytotoxic, partial curve, poor fit]"
same,Potency,[15],"inconclusive: 61.7 µM [cytotoxic, single point]"
same,"ratio activity, negative = inhibition",[6]; at 62 µM (top of the series),inactive: 0.0916%
same,"ratio activity, negative = inhibition",[6]; [18],inconclusive: -25.3%
same,Potency,[16],"inconclusive: 43.2 µM [inhibitor] and inconclusive: 43.6 µM [inhibitor, partial curve]"
same,activation,[17]; activation: at 62.6 µM (top of the series) unless noted,inconclusive: -0.108%
same,activation,[17]; at 62.6 µM (top of the series),inactive: 6.11%
same,Potency,[12],"inactive and inconclusive: 43.6 µM [inhibitor, partial curve, poor fit]"
